Over roughly 1,800 sequences, “median log2 fold change of GCK-ALFA target abundance (FLAG IP / Myc IP barcode read proportion)” has its median near 0.14; the lowest 2% begin near -0.84. The list shows a part of the results.
T1: TRAF2, Q12933
T1 chain: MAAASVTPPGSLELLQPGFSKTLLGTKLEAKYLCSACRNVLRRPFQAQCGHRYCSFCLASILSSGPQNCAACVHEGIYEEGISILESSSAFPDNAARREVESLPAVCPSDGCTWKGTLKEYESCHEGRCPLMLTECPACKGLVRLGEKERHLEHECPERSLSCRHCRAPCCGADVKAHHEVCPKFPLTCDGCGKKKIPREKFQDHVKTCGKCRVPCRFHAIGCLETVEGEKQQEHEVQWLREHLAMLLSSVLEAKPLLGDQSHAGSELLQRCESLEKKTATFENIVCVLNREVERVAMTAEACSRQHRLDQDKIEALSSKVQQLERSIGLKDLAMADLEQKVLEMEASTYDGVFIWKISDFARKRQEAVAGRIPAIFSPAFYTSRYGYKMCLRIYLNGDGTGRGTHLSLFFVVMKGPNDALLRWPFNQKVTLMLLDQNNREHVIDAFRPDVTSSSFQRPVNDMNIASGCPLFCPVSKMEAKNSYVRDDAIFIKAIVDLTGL

B1: traf2_out_20_3_2263 (protein)
chain: EELRKELEEELRKARELLEEIAPELPPEDAARLRALLEKAEEALKTDYTDALVYVSELRRLALELAERARAEGNEELAARLRELADRYGRAAYLLYKIIE
B2: traf2_out_11_155_706 (protein)
chain: EKKRELQNELVDKNIEIEDKLRAEVDAIAAAAAAAHPEHAAAIAAVRAESAPFSGTTYARLMARRFRELGLDDEAARVEALLEKAQKEKNKIYKEIEAKM
B3: traf2_out_18_167_1875 (protein)
chain: SAELEKEYQEASDRLVELSEIRRALLLALEALKRSREEARAVLEAALARFPDSEVLKEALEVAETKSPEELRAFLEEEAERLQKEANEEYKKLEELRKKK
B4: traf2_out_14_166_1285 (protein)
chain: MSPEEIERIREIVDKLEPLNDEAVKKAEEILEKNKDKFSPEDLKRLEELLEIARRNIGSSAINALYEMSEIAKKAGLEEAAKEFKELADKLEKKLSELNK
B5: traf2_out_8_15_2554 (protein)
chain: SIEEAAEKDIKRLEALSDGDKESLIRTLLGMAKAELRYAEILAEEGRKEEALRSLEHALIYAERALELAKEIGSPDLEAIKKEVEEIRKRVEELRKKIEA
B6: traf2_out_1_27_995 (protein)
chain: STEEETELIREAMKKMANSSLEEKLEIARELIRRMHEVSVGSARTAAVLLVSTMKTEEEFEALLEAIEATFRELGLSPEEIARIRRQMETMWELLKKAYA
B7: traf2_out_11_169_814 (protein)
chain: KEAEKNRKINDFALELNDEAKEKLLKFALELAKKAGLDVEEVKKIFEENKNKSLSAVAAALIEYFKSKGKEEEAAAVLEKYEELKEEINKKSTEKIKELE
B8: traf2_out_18_117_1792 (protein)
chain: MKREEIIAELRKIAEELDKAASELGTLMLEKWEELSPEEKSEAMDVLADLTEVRQRALLLIQRIEEEDLPVEEAIAEAEELRKKAEEALKKAKEMIEKIK
B9: traf2_out_13_95_1139 (protein)
chain: SKETAEKINEVADEMLEKVEEVLERLLEIAKEKGVGEKEIEEVLHLARYRSINEAIHKLKELAKKLPEMKEELEKAIEELEKIRREAGKRVAEILKEEKE
B10: traf2_out_9_108_2587 (protein)
chain: MSEEEKLEEIFEKVKKLAEEFLEEVDLSPELKEDLKAAIEQAEKLYKEGLKRTAIILLAISMARVAYEVGEEAVKWLLERLKEIDERAYSAARRMVELLK
B11: traf2_out_14_149_1249 (protein)
chain: SHTEERKKALKEAAKLMEEIIKILQEALEAGSTEVDKEKIRKLLEEAREILRKQGFVLGHLLAMEEMLETTKEWTLEKIREFLELAERARESLEVLAEML
B12: traf2_out_14_149_1234 (protein)
chain: SAEAELFKAAAEMYEKAAEALKEVLKLLEEGKVEEAKKLLKETIKELREYGEKHGVTVSIVFELEEILKLLDENVEEAKKRAKEALERAKSAAEAARSLA
B13: traf2_out_8_174_2561 (protein)
chain: KERERLKRAANLGLKWQEKIDEIKKKREELEKESLEKAVAYTEKESAALLKEIEEEAKRFKEEEDEEEYELLNRVLNSARTRVENLLKGTKILAEAKKKA
B14: traf2_out_9_108_2589 (protein)
chain: MSREEELEETYERVLALVREFLERFPVPEELREALEAAIEQAERLRAEGLKEEAIVLLAIDAARVAYELGDEAVEWLLAELERIDPRAASAARRMVELLK
B15: traf2_out_1_158_906 (protein)
chain: STAVNTLYAVATSIADVYAELAKERGLEKAAALLEKLKEDIKELYEKNKNASLEEFAKKVLELIEEKEKESESLPEEDKALVDIAFRQIKSGVEQVVKLA
B16: traf2_out_16_171_1438 (protein)
chain: SAAAAEEALKAEMEAEVQRLIDRMETAVEMTPLIMKETGLSKEQIAKGVRSTFTDRIEALRARWAERTKDASPEVKAHVAELLARAEAALDEAIAAILAK
B17: traf2_out_13_95_1102 (protein)
chain: SRELAEEIMKIADEMIDKANEILEELLKIAKEKGVAEEEVKEALYLAEHRSIREAIHKLKELAKEYPELKEEFEEAIEKLEKLIEEAGKKVAELIKEEKE
B18: traf2_out_9_17_2623 (protein)
chain: AEAKKKEQEDALEVVEELLKKLIEEGLITEEEAKEILEKVKKAIEEGKSVDEVKALFLGSIASILLFKKKYDVKTAQKIVGEVYRRYNELMAERKAERAA
B19: traf2_out_6_156_2416 (protein)
chain: MVEEILKEALEKVKELIKELAKAPESKKIQYISKIAGTAYRALQKLREAGASLEEIEEFAKRFLEETKKLAKEAGLPEDTINLLLSALQAVFDVAIAEAK
B20: traf2_out_14_149_1260 (protein)
chain: SATEERRRALREALELFERAAELLAAAIAAGSNDLDVEELRRLLEEAREILSKQGFVLGSLLAIEELLEEAEELTEEDLRRLLELAERAAESLEVLAEML
B21: traf2_out_17_162_1589 (protein)
chain: AELEERLKRIEERLEELEKELEELKKKLERIKELSKEELTDLLVEASEKRREARELLVEIESLKDELPAEEYERLSTRAEELAEEFQRIANAFYNELLKK
B22: traf2_out_6_169_2493 (protein)
chain: SEKEKLKKELERHKNNAKDLLNIAKTILEQVKKKKDKEYIKNALEAMETMLNALKRQYDLAIEAATKLGNEEEAKKLKEQKEKDTAEIQAYIDEIEKLLK
B23: traf2_out_1_158_923 (protein)
chain: DTKKKLMLGVVELIGQNAIDSARDRGDEETAAKLEEVVEEIVKLVKELLIEKNKSVEEVIEAIDKLAEEAAAKADPETAAEIERLRRQIISGLRQVDKLM
B24: traf2_out_18_117_1767 (protein)
chain: SRREEIIERLEEIAERLGRAASKLGKAVLENWEKLTPEEKSEAMDVLADLTEVRRKALLLIQEIREENLPVEEAEKRLEELEKEAEKALKEAEEMIEKIE
B25: traf2_out_13_95_1196 (protein)
chain: EEEKRKKYKEETNKIADELLDHADAVIDRIEAATGDPALGAELRRVLDLHGVRALIHFIREQAAARPEYRALFEEAAESLEAKRREAGRRVAEKEKEIEE
B26: traf2_out_13_95_1137 (protein)
chain: SAETAEEIMAVSDEMLDKVDEILKELLEEAKKKGIGVEEIEEVLYLARYQSVNEAIHKLEKLAKEKPEMKEELEEAIKKIREIRREAGRRVAEILKKAKE
B27: traf2_out_6_3_2513 (protein)
chain: SDEEERRRNEEALEEASEMSPETLKRAARTALARLKALVADPNATETDVLAAASFITTLLEILRRNAEKHPELAEELAAFAAEVEAEMEALLAEWKAKRA
B28: traf2_out_17_162_1630 (protein)
chain: SPLEEEIARYKKELEEIRKKVKELEEKAKNIEKLSKEELTDLLVEASEARRKARELAERIEELRKKHNREELDELLEEARELAEKFQRIANLFYNELLKK
B29: traf2_out_6_166_2474 (protein)
chain: DEELLARIREVVEKFSEYSPEDIIEAFEKIAKERSDHRAIMARQLASGVRKAQKAGLPITTIISAMADGWIALGVDPEDILELLEEVLKEVEKIRKEKEE

Target: T1, TRAF2, Q12933
Assay: median log2 fold change of GCK-ALFA target abundance (FLAG IP / Myc IP barcode read proportion) (log2 ratio); each designed protein is fused to an ALFA-tag nanobody in HEK293 cells to bring the named protein to FLAG-tagged glucokinase (GCK); Myc marks an untargeted standard; higher = target protein stabilised (more abundant)
Conditions: target protein: 3xFLAG-MCP-GCK-ALFA reporter; HEK293 landing pad (RPLP)
Summary of the method: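 HEK293 landing-pad cells received a recombined binder library fused to the ALFA nanobody and were induced with 2 μg mL^−1 doxycycline, then transfected with a plasmid encoding a FLAG-tagged target and a Myc-tagged standard. Lysates were collected after 48 h for anti-FLAG and anti-Myc immunoprecipitation, and the circular RNA barcodes were reverse transcribed, amplified and sequenced. Target abundance for each binder is the median log2 ratio of FLAG to Myc barcode read proportions. Barcodes had to reach a proportion of at least 10^−7 in both replicates, each binder needed at least 3 barcodes per replicate, a pseudocount of 10^−6 was applied, and the two replicates were pooled.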

Row | Binder | median log2 fold change
1 | B1 | 0.115
2 | B2 | 0.311
3 | B3 | 0.229
4 | B4 | 0.332
5 | B5 | 0.292
6 | B6 | -0.292
7 | B7 | 0.0171
8 | B8 | 0.421
9 | B9 | 0.348
10 | B10 | -0.666
11 | B11 | -0.109
12 | B12 | -0.264
13 | B13 | 0.00446
14 | B14 | -0.0346
15 | B15 | 0.0998
16 | B16 | -0.457
17 | B17 | -0.486
18 | B18 | -0.242
19 | B19 | -0.0768
20 | B20 | 0.0539
21 | B21 | 0.162
22 | B22 | -0.365
23 | B23 | -0.354
24 | B24 | -0.224
25 | B25 | 0.157
26 | B26 | -0.559
27 | B27 | 0.227
28 | B28 | 0.115
29 | B29 | -0.275
